The source gives no read counts; variants with many changes may rest on few reads.
B1: OR4K15 (parent)
chain: GUUAACGGUCAUAGGCCAUGGAAACUAGGAGCACCAUUUCGCUGCCAGUGAAGAAAUGAACAAAGAAAAUCUGGGCCAGGCAGGCAUCAAAAGAAAUAGUCUUGCGCUCAACCAGAAAGUCUGUAAUCAUUUUAAGGGUA

Variants of: B1
Experiment: self-cleavage, relative activity (ratio to wild type); higher = more cleavage; in vitro, sequencing; the parent is a self-cleaving ribozyme
For A22G A24G A64G, the self-cleavage was 0.94. U43C A60G C76U A135G gave a self-cleavage of 0.19. With A30G A68G U103C the self-cleavage was 0.9. Variant A54G A86G U97C has a self-cleavage of 0.81. Variant A69G U72C U87A U133C has a self-cleavage of 0.37. U38C U49A A54G A86G showed a self-cleavage of 1.19. U3C A94G U103C U120C U127A showed a self-cleavage of 0.11. With A54U A67U U108C the self-cleavage was 0.03. In the case of U38C A51U A63G, the self-cleavage is reported as 1.69. A18G A62U U130C showed a self-cleavage of 0.69. U37C A54G U97G U108A C109U gave a self-cleavage of 0.01. A36U A59G A64G gave a self-cleavage of 1.89. Work on U43C A47G U70C U100C U130C A135G yielded a self-cleavage of 1.17. A4U A18U U49C A56G showed a self-cleavage of 1.12. A23G A52G A56G A92G U97C gave a self-cleavage of 1.05. With U2A U26C A96G the self-cleavage was 0.69. In the case of U49C A94G U108C, the self-cleavage is reported as 0.01. Variant A51G A54G A86U A118G has a self-cleavage of 1.3. U108C U120C U122C showed a self-cleavage of 0. With A27G U43C A51U A64G A114C the self-cleavage was 0.05. With A18G U39C G58A the self-cleavage was 1.91. In the case of A24G A27G A63C A66U, the self-cleavage is reported as 1.02. Work on A63G A116G U130A yielded a self-cleavage of 0.21. In the case of U9C U103C U133G G138A, the self-cleavage is reported as 1.02. In the case of A51U U102C A114G, the self-cleavage is reported as 0.55. In the case of A18G U39C G73U U127A, the self-cleavage is reported as 0.39. With A27G A59U G83U U102A the self-cleavage was 0.64. Variant U43A A54C U100C has a self-cleavage of 2.24. C42U U49C A54G showed a self-cleavage of 1.26. In the case of A5G A11G A51U A62U, the self-cleavage is reported as 0.39. In the case of G1A A36U U38C U70C U127C, the self-cleavage is reported as 1.25. In the case of A5U A118U A134U, the self-cleavage is reported as 0.44. For A5U U9C U19C A59G, the self-cleavage was 0.89. With A18U U57C A92G A140U the self-cleavage was 0.93. For A13U U49C A126G, the self-cleavage was 1.24. Work on A23G A51G A66G A116G yielded a self-cleavage of 0.43. G1A A11G A36G A47G U57C U70A U103C gave a self-cleavage of 0.58. U2A A94G U102A U103C U108C gave a self-cleavage of 0.05. Work on U9C A94G U108C U122G yielded a self-cleavage of 0.01. Work on A126G U130C A140G yielded a self-cleavage of 0.25. With G28A A60G A66G the self-cleavage was 0.92. U9A A23G A125G showed a self-cleavage of 0.42. Variant U57C A59G U70C has a self-cleavage of 0.24. With A56G A62G A69G the self-cleavage was 0.58. A33G U72C A78C U131C showed a self-cleavage of 0.02. Variant A78U A90G U108C A111G U132C U139A has a self-cleavage of 0. Work on A22G A64G C76U yielded a self-cleavage of 0.19. Variant A67G A86G U103A has a self-cleavage of 0.61. With U49C A68G U72A U87C A129G the self-cleavage was 0.1. In the case of A5G C112U U139A, the self-cleavage is reported as 0.05. For A51G A55U A98G, the self-cleavage was 0.63. In the case of A24U U43C A63G A118G, the self-cleavage is reported as 2.18. With A30G A63G A98G A126G the self-cleavage was 0.48. With A82G A114C A126C the self-cleavage was 0. U38G A67G A135G showed a self-cleavage of 2.34. A62G A78G C105U showed a self-cleavage of 0.1. With A36C G65A A78U A89C U97C A114G A129G the self-cleavage was 0.01. In the case of U2C A5G U120C, the self-cleavage is reported as 0.79. Work on C16U A18G A55G yielded a self-cleavage of 0.69. For A5U C88U A117G, the self-cleavage was 0.91. Variant A18G A66G A96G C128U has a self-cleavage of 1.19. For A63U A96U A98G, the self-cleavage was 2.47. With U19A U39C A51G A69G the self-cleavage was 1.06. For A33G A67G U103C U108C U132C, the self-cleavage was 0.06. With U2C A68U A96G the self-cleavage was 1. For U26C U122C U127A, the self-cleavage was 0.72. Variant A36G A55G A129G has a self-cleavage of 1.12. For C40A A110G U122C, the self-cleavage was 0.13. U2C U49A A78U A96G A116G A126U gave a self-cleavage of 0.11. Work on G84A A96G G119U yielded a self-cleavage of 2.33. Variant A56G A78G C105U has a self-cleavage of 0.08. For A24C U57C A92G, the self-cleavage was 0.68. With U19C U57C A59G the self-cleavage was 1.75. For U9A A47U U100C A118C, the self-cleavage was 0.79. For A63G A89C A96G A118U A125G, the self-cleavage was 0.33. In the case of A4G U43C A64G, the self-cleavage is reported as 0.36. A11G A33G A82G G84A A117G showed a self-cleavage of 0.59. With U38C U49C U108C the self-cleavage was 0.02. Work on U87C A91G U102C yielded a self-cleavage of 2.08. A27U A52G A62G A69G A94G gave a self-cleavage of 1.17. A82G A91G A98G gave a self-cleavage of 0.07. Variant C16U A54G U102C U139C has a self-cleavage of 1.3. Variant A55G U57C A69G has a self-cleavage of 0.74.
